Test results as given in PubChem BioAssay AID1671194 (National Center for Advancing Translational Sciences (NCATS), 2021).
The whole screen tested about 140,000 compounds, of which about 240 (0.17%) were called active. The shares of active, inactive and inconclusive entries below differ from those in the screen. Calls come from the whole dose curve; as a rule, active = well fitted inhibition curve with a large enough effect; inconclusive = small, poorly fitted or top-dose-only effect; inactive = no such curve, though single readings can be large or run the other way. Potencies beside an inconclusive call are fits to weak or partial responses and may not hold up.

assay: Primary qHTS assay for inhibitors of alpha-synuclein gene (SNCA) expression; conditions: HEK-293 SNCA-luciferase knock-in, luminescence, 24 h; activity change, negative = inhibition: at 57.2 µM (top of the series); note: nearly all actives have a fitted effect of over 45% in size;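 for activity change, negative = inhibition: plate controls were DMSO cells for no effect and cell-free wells for full effect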
Potency is the fitted concentration of half-maximal effect; tags give direction and shape of the fitted curve.

| SMILES | Potency | activity change, negative = inhibition |
| --- | --- | --- |
| C=CCN1CCc2cccc3c2[C@H]1Cc1ccc(O)c(O)c1-3 | inconclusive: 39.8 µM [inhibitor, single point] | – |
| CN(C[C@H]1CN2CC[C@H]1C[C@@H]2CNC(=O)c1ccc(C(F)(F)F)cc1)c1ccccc1 | – | inactive: -24.7% [at 87.6 µM] |
| Cn1nc(C2CCCCC2)cc1[C@H]1CN2CC[C@H]1C[C@@H]2CNC(=O)N1CCOCC1 | – | inactive: 12.5% [at 87.6 µM] |
| Cc1nc(-c2ccccc2Br)cc([C@H]2CN3CC[C@H]2C[C@@H]3CNC(=O)NC(C)C)n1 | – | inactive: 2.47% |
| Cn1nc(C2CCCC2)cc1[C@H]1CN2CC[C@H]1C[C@@H]2CNS(=O)(=O)c1ccccc1 | – | inactive: 10.8% [at 87.6 µM] |
| CC(C)CN(Cc1cccnc1)C1CN(C(=O)COc2ccc(F)cc2)C1 | – | inactive: 7.74% |
| O=C(NC[C@H]1C[C@@H]2CCN1C[C@@H]2CN1CCC(Cc2ccccc2)CC1)Nc1ccsc1 | inconclusive: 39.8 µM [inhibitor, single point] | – |
| Cc1ncc2c(n1)C[C@@H]1CC[C@H]2N1C(=O)CC1CCCC1 | – | inactive: 23.7% |
| Cc1ncc2c(n1)C[C@@H]1CC[C@H]2N1S(=O)(=O)c1ccccc1C | – | inactive: 5.81% |
| CCc1cccc(NC(=O)CN2C(=O)CN=C(c3ccccc3F)c3cc(Cl)ccc32)c1 | inconclusive: 39.8 µM [inhibitor, single point] | – |
| COc1cc(NC(=O)OC[C@H]2C[C@@H]3CCN2C[C@@H]3c2cc(-c3ccc(N(C)C)cc3)nc(C)n2)cc(OC)c1 | inconclusive: 39.8 µM [inhibitor, single point] | – |
| Cc1ccc(S(=O)(=O)NC[C@H]2C[C@@H]3CCN2C[C@@H]3CN2CCCCC2)cc1 | – | inactive: 15.8% [at 87.6 µM] |
| COc1ccc(CC(=O)N2CCC3(CC2)c2nccn2-c2ccccc2CN3C)cc1 | – | inactive: -23.5% |
| c1nc(N2C[C@@H](c3ccc4c(c3)OCO4)[C@@H]3[C@H]2C2CCN3CC2)c2[nH]cnc2n1 | – | inactive: 1.13% |
| CN1CCN2C(=O)N(Cc3cccnc3)C[C@H]2C1 | – | inactive: 2.82% [at 87.6 µM] |
| Cc1c(C(=O)Nc2cccc(C(F)(F)F)c2)cc(-c2ccccc2)n1CCCN1CCOCC1 | inconclusive: 8.57 µM [inhibitor, partial curve, poor fit] | – |
| COc1cc2c(cc1Oc1ccccc1)NC(=O)C21CCN(c2nc(C)cnc2C)CC1 | inconclusive: 1.78 µM [inhibitor, full curve, poor fit] | – |
| COc1cc2c(cc1OCc1ccccc1)N(C(=O)COc1ccccc1C(N)=O)CC21CCN(C)CC1 | inconclusive: 0.708 µM [inhibitor, full curve, poor fit] | – |
| COc1ccc2c(c1)C1(CCN(S(=O)(=O)c3ccc(Cl)cc3)C1)C(=O)N2C (stereo unspecified) | – | inactive: -17.5% |
| O=C1CC2CCN(CC3CCNC3)CC2CCN1 (stereo unspecified) | – | inactive: 13.2% [at 87.6 µM] |
| Cc1cccc(CC(=O)N2[C@H]3CC[C@@H]2c2cnc(C)nc2C3)c1 | inconclusive: 39.8 µM [inhibitor, single point] | – |

| SMILES | Potency | activity change, negative = inhibition |
| --- | --- | --- |
| CC[C@@]1(O)C(=O)OCc2c1cc1n(c2=O)Cc2cc3ccccc3nc2-1 | inconclusive: 0.271 µM [inhibitor, full curve] | – |
| COc1ccc(C(=O)N2CCC3(CC2)c2nccn2-c2ccccc2CN3C)c(OC)n1 | inconclusive: 0.708 µM [inhibitor, partial curve, poor fit] | – |
| CCOC(=O)[C@H]1CN(C(=O)/C=C/c2ccccc2)[C@]2(C)C(=O)N(CCOC(C)=O)c3ccccc3[C@H]12 | – | inactive: -8.83% [at 25.6 µM] |
| CC(=O)Nc1ccc2n(c1=O)C[C@H]1C[C@@H]2CN(C(=O)c2ccccn2)C1 | – | inactive: 3.36% [at 87.6 µM] |
| CC(=O)N1CCC2(CC1)C(=O)NN=C2c1cccnc1 | – | inactive: -6.06% [at 87.6 µM] |
| c1cncc(C2=NOC3(CCN(C4CCCCC4)CC3)C2)c1 | – | inactive: 8.77% [at 87.6 µM] |
| Cn1nc(-c2ccc3ccccc3c2)cc1[C@H]1CN2CC[C@H]1C[C@@H]2CNS(=O)(=O)c1ccccc1 | inconclusive: 3.98 µM [inhibitor, single point] | – |
| Cc1c(C(=O)c2cccc3ccccc23)c2cccc3c2n1[C@H](CN1CCOCC1)CO3 | inconclusive: 42.9 µM [inhibitor, single point] | – |
| CC(=O)Nc1ccc(S(=O)(=O)N2C[C@@H]3C[C@H](C2)c2c(-c4cccs4)ccc(=O)n2C3)cc1 | – | inactive: -3.39% |
| COc1ccccc1CC(=O)N1CC2(CCN(C)CC2)c2cc(OC)c(OCc3ccccc3)cc21 | – | inactive: 0.34% |
| O=C(O)CNC(=O)c1c(O)c2ccccc2n(Cc2ccccc2)c1=O | – | inactive: 18.4% |
| Cc1nn(C)c2ncnc(NCCc3c[nH]c(=O)[nH]c3=O)c12 | – | inactive: 25.3% |
| CC(C)N1C(=O)OCC12CCN(Cc1cccnc1)C2 (stereo unspecified) | inconclusive: 7.94 µM [inhibitor, full curve, poor fit] | – |
| CCCCOC(=O)N1C[C@H](C(=O)OCC)[C@H]2c3ccccc3N(CC3CC3)C(=O)[C@]21C | – | inactive: 16% [at 25.6 µM] |
| CCOC(=O)[C@H]1CN(C(=O)OCC(C)C)[C@]2(C)C(=O)N(CC3CC3)c3ccccc3[C@H]12 | inconclusive: 11.2 µM [inhibitor, single point] | – |
| COc1ccc2c3c1O[C@H]1[C@@H](O)C=C[C@H]4[C@@H](C2)N(C)CC[C@@]341 | – | inactive: -27.7% |
| COc1ccc(-c2cc([C@H]3CN4CC[C@H]3C[C@@H]4CNC(=O)C3CCC3)n(C)n2)cc1OC | – | inactive: 17.7% [at 87.6 µM] |
| CCCCCC(=O)N1C[C@H](C(=O)OCC)[C@H]2c3ccccc3N(CCO)C(=O)[C@]21C | – | inactive: -21.1% [at 25.6 µM] |
| C[C@@H]1CC[C@@]2(OC1)O[C@H]1C[C@H]3[C@@H]4CC=C5C[C@@H](O[C@@H]6O[C@H](CO)[C@@H](O[C@@H]7O[C@@H](C)[C@H](O)[C@@H](O)[C@@H]7O)[C@H](O)[C@@H]6O[C@@H]6O[C@@H](C)[C@H](O)[C@@H](O)[C@@H]6O)CC[C@]5(C)[C@@H]4CC[C@]3(C)[C@@H]1[C@H]2C | inconclusive: 42.9 µM [inhibitor, single point] | – |
| CCOC(=O)[C@H]1CN(C(=O)CC2CCCC2)[C@]2(C)C(=O)Nc3ccccc3[C@H]12 | – | inactive: 6.77% [at 25.6 µM] |
| CC1=C(O)C(=O)C=C2C1=CC=C1[C@@]2(C)CC[C@@]2(C)[C@@H]3C[C@](C)(C(=O)O)CC[C@]3(C)CC[C@]12C | active: 7.64 µM | – |

| SMILES | Potency | activity change, negative = inhibition |
| --- | --- | --- |
| Cc1nc(-c2ccc(C(F)(F)F)cc2)cc([C@H]2CN3CC[C@H]2C[C@@H]3CNC(=O)C2CC2)n1 | inconclusive: 17.8 µM [inhibitor, single point] | – |
| COc1cc2c(cc1OC1CCCC1)NC(=O)C21CCN(c2ccnc(C)n2)CC1 | inconclusive: 15.8 µM [inhibitor, partial curve, poor fit] | – |
| CCN(CC)C(=O)c1ccc(NC(=O)CCn2nc(-c3ccc(C)cc3)c3ccccc3c2=O)cc1 | inconclusive: 39.8 µM [inhibitor, single point] | – |
| Cc1c(N)nc([C@H](CC(N)=O)NC[C@@H](N)C(N)=O)nc1C(=O)N[C@H](C(=O)N[C@@H](C)[C@H](O)[C@@H](C)C(=O)N[C@@H](C(=O)NCCc1nc(-c2nc(C(=O)NCCC[S+](C)C)cs2)cs1)[C@@H](C)O)C(O[C@H]1O[C@H](CO)[C@H](O)[C@@H](O)[C@@H]1O[C@H]1O[C@H](CO)[C@@H](O)[C@H](OC(N)=O)[C@H]1O)c1cnc[nH]1 (stereo partly specified) | inconclusive: 13.6 µM [inhibitor, partial curve, poor fit] | – |
| CCN(CC)C(=O)c1ccc(NC(=O)CCn2nc(-c3ccc(Cl)cc3)c3ccccc3c2=O)cc1 | inconclusive: 39.8 µM [inhibitor, single point] | – |
| CC[C@H]1CN2CC[C@H]1C[C@@H]2CN(Cc1cccs1)Cc1cccs1 | inconclusive: 56.2 µM [inhibitor, single point] | – |
| CCC(CC)c1cc([C@H]2CN3CC[C@H]2C[C@@H]3CNS(=O)(=O)c2cccs2)nc(-c2ccncc2)n1 | inconclusive: 11.2 µM [inhibitor, partial curve, poor fit] | – |
| CC(C)(O)C=CC(=O)[C@](C)(O)[C@H]1[C@H](O)C[C@]2(C)[C@@H]3CC=C4[C@@H](C=C(O)C(=O)C4(C)C)[C@]3(C)C(=O)C[C@@]12C | active: 13.6 µM | – |
| O=C(CN1C(=O)CN=C(c2ccccc2)c2ccccc21)Nc1cccc(C(F)(F)F)c1 | inconclusive: 39.8 µM [inhibitor, single point] | – |
| CCCC1=Nc2cc(C(=O)NC3CCC(C)CC3)ccc2Sc2ccccc21 (stereo unspecified) | inconclusive: 3.98 µM [inhibitor, single point] | – |
| O=C(NCc1ccccc1)[C@H]1CN2CCC1C[C@@H]2Cn1cc(-c2ccccc2)nn1 (stereo partly specified) | – | inactive: 14.5% [at 87.6 µM] |
| CCCSc1ncc(CN2CCCC3(CCNC3)C2)cn1 (stereo unspecified) | – | inactive: -14% |
| C=CCN1CCC2(CCC1=O)CN(C(=O)Cc1cccnc1)CCN2C (stereo unspecified) | inconclusive: 25.1 µM [inhibitor, partial curve, poor fit] | – |
| O=C(Cc1cccc(F)c1)N1[C@H]2CC[C@@H]1c1cnc(-c3ccc(F)cc3)nc1C2 | inconclusive: 39.8 µM [inhibitor, single point] | – |
| CC(C)c1ccc(NC(=O)OC[C@H]2C[C@@H]3CCN2C[C@@H]3c2cc(C3CCCCC3)nn2C)cc1 | inconclusive: 39.8 µM [inhibitor, single point] | – |
| COc1cc2c(cc1OCC1CC1)NC(=O)C21CCN(c2nc(C)cc(C)n2)CC1 | inconclusive: 12.6 µM [inhibitor, single point] | – |
| CN1CCN(C(=O)Cc2c[nH]c3ncc(-c4cccc(F)c4)cc23)CC1 | – | inactive: 4.78% [at 87.6 µM] |
| O=c1c(-c2cccs2)ccc2n1C[C@H]1C[C@@H]2CN(Cc2cc3ccccc3o2)C1 | – | inactive: -3.05% [at 87.6 µM] |
| COc1cc2c(cc1Oc1ccccc1)NC(=O)C21CCN(C(=O)c2ccnn2C)CC1 | inconclusive: 39.8 µM [inhibitor, partial curve, poor fit] | – |
